PubChem BioAssay AID485294 (National Center for Advancing Translational Sciences (NCATS), 2010)
About 150 (0.041%) of roughly 370,000 compounds were called active. This list was built around the results that the source calls inconclusive (neither active nor inactive); the mix of calls is not that of the screen. Calls come from the whole dose curve; as a rule, active = well fitted inhibition curve with a large enough effect; inconclusive = small, poorly fitted or top-dose-only effect; inactive = flat fitted curve, though single readings scatter. Potencies of inconclusive entries are left out as doubtful fits.

Each molecule was assayed against Beta-lactamase (Escherichia coli (strain K12)) (UniProt P00811) (assay: qHTS Inhibitors of AmpC Beta-Lactamase (assay with detergent)). Settings: AmpC hydrolysis of nitrocefin, absorbance 480 nm, 0.01% Triton; activity change, negative = inhibition: at 114 µM (top of the series).
Outline: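 AmpC (5.3 nM in the dispensed reagent) in 20 mM phosphate pH 7.0 with 0.01% (detergent screen) or 0.0001% Triton X-100 was preincubated with compounds for 15 min at room temperature. Nitrocefin was then added from an 800 uM solution, and hydrolysis was followed at 480 nm.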
Note: nearly all actives have a fitted effect of over 25% in size.
Potency is the fitted concentration of half-maximal effect; tags give direction and shape of the fitted curve.
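Throughout, for activity change, negative = inhibition: 0% = no-compound wells and -100% = no-enzyme wells.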

Chain of UniProt P00811 (P00811 whole entry, looked up): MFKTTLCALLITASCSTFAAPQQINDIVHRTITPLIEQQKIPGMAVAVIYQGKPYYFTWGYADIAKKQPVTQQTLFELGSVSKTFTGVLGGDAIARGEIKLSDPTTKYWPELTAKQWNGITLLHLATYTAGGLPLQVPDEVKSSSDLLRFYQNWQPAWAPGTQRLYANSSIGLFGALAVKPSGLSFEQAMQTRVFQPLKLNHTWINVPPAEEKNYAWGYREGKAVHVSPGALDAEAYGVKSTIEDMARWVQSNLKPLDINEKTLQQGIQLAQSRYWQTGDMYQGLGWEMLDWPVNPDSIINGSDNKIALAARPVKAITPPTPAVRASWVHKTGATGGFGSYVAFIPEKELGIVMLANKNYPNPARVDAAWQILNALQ

Row | SMILES | Potency | activity change, negative = inhibition
1 | CCNc1nc(=S)nc(NC(C)C)[nH]1 | inconclusive [inhibitor, single point] | 
2 | O=[N+]([O-])c1ccc(N=Cc2ccc(Br)c([N+](=O)[O-])c2)cc1 | inconclusive [inhibitor, full curve, poor fit] | 
3 | COc1ccc(NC(=O)Nc2ccc3nc(C)c(C)nc3c2)cc1 | inconclusive [inhibitor, full curve, poor fit] | 
4 | COc1cc(C(CC(=O)Nc2ccc(Cl)cn2)N2Cc3ccccc3C2=O)cc(OC)c1OC (stereo not drawn) | inconclusive [inhibitor, full curve, poor fit] | 
5 | CCOC(=O)c1ccc(NC(=O)CSc2ccc(-c3sc(C)nc3C)nn2)cc1 |  | inactive: -4.13%
6 | CN(C)c1oc(-c2ccc(OCc3ccccc3)cc2)nc1C#N | inconclusive [inhibitor, full curve, poor fit] | 
7 | COCCNS(=O)(=O)c1ccc(C2CNC(=O)C2)cc1 (stereo not drawn) | inconclusive [inhibitor, full curve, poor fit] | 
8 | COC(CN(C)S(=O)(=O)c1cc2c3c(c1)CCC(=O)N3CCC2)OC | inconclusive [inhibitor, partial curve, poor fit] | 
9 | O=C(NC1CC(=O)N(c2cccc(F)c2)C1)c1ccc(S(=O)(=O)N2CCOCC2)cc1 (stereo not drawn) |  | inactive: -5.75%
10 | CN1CCN(C(=O)/C(=C/c2cccc([N+](=O)[O-])c2)NC(=O)c2ccccc2)CC1 | inconclusive [inhibitor, full curve] | 
11 | CN(C)C(CNC(=O)c1cccs1)c1cccnc1 (stereo not drawn) |  | inactive: -14.7%
12 | O=C(Oc1ccccc1)n1c(=S)oc2ccccc21 | inconclusive [inhibitor, single point] | 
13 | CC1Sc2ccc(S(=O)(=O)NCCc3ccccc3)cc2NC1=O (stereo not drawn) |  | inactive: -2.94%
14 | COc1ccc(C(=O)NCCCc2nc3ccccc3n2Cc2cc(C)ccc2C)cc1OC | inconclusive [inhibitor, partial curve, poor fit] | 
15 | Cc1ccc(-c2nn(CCC(=O)NCC3CCCO3)c(=O)c3ccccc23)cc1 (stereo not drawn) | inconclusive [inhibitor, full curve, poor fit] | 
16 | NC(=O)CC(NC(=O)Cc1ccc(Br)cc1)c1ccc(NCCN2CCCC2)c([N+](=O)[O-])c1 (stereo not drawn) | inconclusive [inhibitor, full curve, poor fit] | 
17 | O=[N+]([O-])c1ncn(Cc2c(Cl)cccc2Cl)n1 | inconclusive [inhibitor, full curve] | 
18 | C=CCNc1nc(-c2ccc(O)c(C(N)=O)c2)cs1 | inconclusive [inhibitor, single point] | 
19 | O=C(Nc1ccc(N2CCOCC2)cc1)c1cccc(-n2cnnc2)c1 |  | inactive: -12.2%
20 | COc1ccccc1NC(=O)NCc1ccco1 | inconclusive [inhibitor, partial curve] | 
21 | O=C(Nc1nc(-c2ccc(S(=O)(=O)N3CCCC3)cc2)cs1)c1ccco1 |  | inactive: -17.9%
22 | CC(=O)c1c(COC(=O)c2ccccc2)nc2ccccc2[n+]1[O-] | inconclusive [inhibitor, full curve, poor fit] | 
23 | CS(=O)(=O)Cc1ccc(C(=O)NC2CCSc3ccccc32)cc1 (stereo not drawn) | inconclusive [inhibitor, full curve] | 

Row | SMILES | Potency | activity change, negative = inhibition
24 | COc1ccccc1-c1nnc(SC2CCc3ccccc3NC2=O)s1 (stereo not drawn) | inconclusive [inhibitor, full curve, poor fit] | 
25 | CCNS(=O)(=O)c1ccc(CCC(=O)N2CCC(C)CC2)cc1 | inconclusive [inhibitor, full curve, poor fit] | 
26 | S=C(c1ccc(-c2ccccc2Cl)o1)N1CCCCC1 | inconclusive [inhibitor, partial curve, poor fit] | 
27 | CC(=O)NS(=O)(=O)c1ccc(NC(=O)/C=C/c2ccccc2Cl)cc1 | inconclusive [inhibitor, partial curve] | 
28 | COc1cccc(C(=O)CC(=O)C(=O)Nc2cc(Cl)c(OC)cc2OC)c1 |  | inactive: -11.1%
29 | COCC(=O)Nc1ccc(C(N)=O)cc1 | inconclusive [inhibitor, full curve, poor fit] | 
30 | O=Cc1ccc(-c2ccccc2OC(F)(F)F)o1 |  | inactive: 5.69%
31 | Cc1ccc(NC(=S)NN2CCN(C)CC2)cc1 | inconclusive [inhibitor, partial curve, poor fit] | 
32 | COc1ccc(N2CCN(C(=O)c3cc(S(=O)(=O)N4CCCCCC4)cn3C)CC2)cc1 |  | inactive: 23.5%
33 | CN1CCN(CCCC(=O)c2ccc(F)cc2)CC1 | inconclusive [inhibitor, full curve] | 
34 | Cc1ccc2oc(C(=O)N(Cc3cccc(F)c3)C3CCS(=O)(=O)C3)c(C)c2c1 (stereo not drawn) |  | inactive: 16.2%
35 | O=C(CCOc1cccc(Br)c1)Nc1ccc(F)c(S(=O)(=O)N2CCOCC2)c1 | inconclusive [inhibitor, full curve, poor fit] | 
36 | O=C(NC1CC1)c1ccc(NS(=O)(=O)c2ccc(F)cc2)cc1 | inconclusive [inhibitor, partial curve, poor fit] | 
37 | c1ccc(N2CCN(c3ncnc4sc5c(c34)CCC5)CC2)cc1 |  | inactive: -12.8%
38 | Nc1ccc(C(=O)N/N=C/c2cn(Cc3cccc(F)c3)c3ccccc23)cc1 | inconclusive [inhibitor, full curve] | 
39 | O=C(Nc1ccccc1)N1CCC(C(=O)N2CCCC(C(F)(F)F)C2)CC1 (stereo not drawn) | inconclusive [inhibitor, single point] | 
40 | O=C(COc1ccccc1Br)NC(=O)NC1CCCC1 | inconclusive [inhibitor, full curve] | 
41 | Cc1cc(C(=O)N(C)CC(=O)Nc2ccc(Cl)c(C(F)(F)F)c2)no1 | inconclusive [inhibitor, full curve, poor fit] | 
42 | COCCNCC(=O)Nc1nc(C)cs1 | inconclusive [inhibitor, full curve, poor fit] | 
43 | CCNC(=S)NNC(=O)c1cccnc1 | inconclusive [inhibitor, single point] | 
44 | COc1ccc(OC)c2sc(NC(=O)CCSc3ccccc3)nc12 |  | inactive: -11.2%
45 | CC(C)OP(=O)(c1ccc(N(C)C)cc1)C(O)c1cccnc1 (stereo not drawn) |  | inactive: 0.633%
46 | COc1cccc(CNC(=O)COC(=O)c2cccc(S(=O)(=O)N3CCCC3)c2)c1 | inconclusive [inhibitor, partial curve] | 

Row | SMILES | Potency | activity change, negative = inhibition
47 | CCCCCCn1c(=O)c(C(=O)Nc2c(C)n(C)n(-c3ccccc3)c2=O)c(O)c2ccccc21 | inconclusive [inhibitor, full curve, poor fit] | 
48 | CSc1ccc(CNc2ncc(-c3cccc([N+](=O)[O-])c3)n2C)cc1 | inconclusive [inhibitor, full curve, poor fit] | 
49 | Cc1ccc(-n2c(O)c(/C=C3/C(c4ccccc4)=Nc4ccccc43)c(=O)[nH]c2=O)cc1 |  | inactive: -2.5%
50 | Cn1c(=O)cc(OCC(=O)N2CCC3(CC2)OCCO3)c2ccccc21 | inconclusive [inhibitor, full curve, poor fit] | 
51 | C/C(NC(=O)c1ccccc1F)=C1\C(=O)C[C@@H]2[C@H]1C2(C)C | inconclusive [inhibitor, partial curve] | 
52 | CN(CC(=O)Nc1ccccc1Cl)C(=O)c1cccc(S(=O)(=O)N2CCN(c3ccc(F)cc3)CC2)c1 |  | inactive: -7.15%
53 | Cc1ccc(CCNC(=O)C2CCC(CNc3c(N4CCC(C)CC4)c(=O)c3=O)CC2)cc1 (stereo not drawn) | inconclusive [inhibitor, full curve, poor fit] | 
54 | CC1CCCCC12NC(=O)N(CC(=O)NC(=O)Nc1ccc3c(c1)OCCO3)C2=O (stereo not drawn) |  | inactive: -10.5%
55 | CCOC(=O)c1cc(-c2ccccc2)n(CC(=O)Nc2ccc(OC)cc2OC)c1C |  | inactive: 16.8%
56 | COc1ccc(OCCCN2CCCC(C)C2)cc1 (stereo not drawn) | inconclusive [inhibitor, full curve] | 
57 | Cn1nnc2cc(NC(=O)Nc3cccc(Cl)c3)ccc21 | inconclusive [inhibitor, partial curve, poor fit] | 
58 | O=C1CCN(C(=O)c2ccccc2)C2CCCCC12 (stereo not drawn) | inconclusive [inhibitor, single point] | 
59 | O=C(Nc1ccc(CN2CCOCC2)cc1)c1ccc(Br)o1 |  | inactive: 2.17%
60 | CCOc1cc(CNC(C)C(O)c2ccccc2)cc(Cl)c1OCC (stereo not drawn) | inconclusive [inhibitor, full curve, poor fit] | 
61 | Cn1c(/C=C/c2ccc(Cl)cc2)c([N+](=O)[O-])c(=O)n(C)c1=O |  | inactive: -0.881%
62 | Cc1cc(C)n(C(=O)c2cccc(S(=O)(=O)N3CCCC3)c2)n1 | inconclusive [inhibitor, full curve, poor fit] | 
63 | COc1cc(CNc2ncc(-c3ccc(Br)cc3)n2C)cc(OC)c1OC | inconclusive [inhibitor, full curve, poor fit] | 
64 | COC(=O)c1ccccc1NC(=O)CSc1nnc(-c2ccc(C)cc2)o1 | inconclusive [inhibitor, full curve, poor fit] | 
65 | Cc1ccc(S(=O)(=O)Nc2ccc(Br)cc2C(NCC(=O)O)c2ccccc2)cc1 (stereo not drawn) |  | inactive: -4.75%
66 | O=c1[nH]c(=S)[nH]c(O)c1CN1CCCCC1 | inconclusive [inhibitor, single point] | 
67 | OC(COCc1ccc(Cl)cc1)CN1CCCCC1 (stereo not drawn) |  | inactive: -4.68%
68 | O=C(COC(=O)Cc1n[nH]c(=O)c2ccccc12)Nc1c(Cl)cccc1C(F)(F)F | inconclusive [inhibitor, full curve, poor fit] | 
